US11390580B2, “Anti-fungals targeting the synthesis of fungal shingolipids” (THE RESEARCH FOUNDATION FOR THE STATE UNIVERSITY OF NEW YORK, priority 2014, dated 2022)

Tests used:
[1] = test system: mammalian GlcCer in bone marrow derived macrophages; conditions: treated for three days
[2] = test system: J774.16 cells; assay: In vitro toxicity, MTT assay; conditions: for toxicity: J774; for toxicity when combined with dexamethasone: J774, 24 hr

## Cc1ccccc1C(=O)NN=Cc1ccc(O)c(Br)c1 [BHBM, N′-(3-bromo-4-hydroxybenzylidene)-2-methylbenzohydrazide]
[1]
  GlcCer level: did not significantly affect GlcCer level
[2]
  EC50/MIC80 selectivity index: 50
  toxicity: no or a slight toxicity
  toxicity when combined with dexamethasone: enhanced

## O=C(NN=Cc1ccc(O)c(Br)c1)c1cccc(Br)c1 [Compound 1, 3-bromo-N′-(3-bromo-4-hydroxybenzylidene) benzohydrazide]
[2]
  EC50/MIC80 selectivity index: > 100
  toxicity: no or a slight toxicity
  toxicity when combined with dexamethasone: increased toxicity
